The other results are listed elsewhere or left out.
tested on: T1, C. trachomatis L2/434/Bu expressing GFP (CTL2-GFP); parameters: species or system HeLa; C. trachomatis total inclusion area by high-content imaging, normalised to DMSO; settings: total inclusion area; 28.5 h, 10 µM; inhibitor
T1 construct: L2/434/Bu GFP intracellular growth in HeLa cells
Method in brief: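 Imaging read-out: GFP inclusions and Hoechst nuclei captured by high-content imaging after fixation. Inclusion area/number = chlamydial growth; nuclei count = host cell viability. MIC calculated per earlier method.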

| Compound | % of control remaining |
| --- | --- |
| COc1cncc(C(NC(=O)Cc2cn3ccsc3n2)[C@H]2C[C@H](O)C2)c1 (stereo partly drawn) [CBK306642] | 58.5883 |
| CNS(=O)(=O)c1cc(C(=O)NC2CCCc3ccccc32)n(C)c1 (stereo not drawn) [CBK305048] | 57.2904 |
| CC1CCCN(c2nc3nc[nH]c(=O)c3s2)C1 (stereo not drawn) [CBK288120] | 127.962 |
| COC(=O)c1ccccc1S(=O)(=O)Nc1nnn[nH]1 [CBK021321] | 91.0477 |
| Cc1nc(C)n(C(C)CNC(=O)Cc2coc3cc(C)c(C)cc23)n1 (stereo not drawn) [CBK282577] | 110.767 |
| COc1ccc(NC(=O)CCSCCC(=O)O)cc1S(=O)(=O)N1CCCCC1 [CBK296655] | 127.718 |
| Cc1cc(NS(=O)(=O)c2ccc(NC(=S)NC3CCCCC3)cc2)no1 [CBK268157] | 59.8964 |
| OC1CCC(Nc2cncc(-c3ccc(F)cc3F)n2)CC1 (stereo not drawn) [CBK065835] | 76.0598 |
| Cc1nc(CCNc2ccc(-c3nc(C)c(C)c(=O)[nH]3)cn2)cs1 [CBK305497] | 28.9001 |
| CCc1c(C)sc(NC(=O)CSc2nnnn2C)c1C(=O)OC [CBK270312] | 84.5822 |
| COc1ccccc1-c1nnc(SCc2cccc(C(=O)O)c2)[nH]1 [CBK269952] | 101.548 |
| N#C/C(=C\c1ccc(OCC(=O)c2ccccc2)cc1)c1nc(-c2cccs2)cs1 [CBK266765] | 64.1274 |
| CCOCCn1c(=O)c2c(nc3oc(C(C)(C)C)cn32)n(C)c1=O [CBK307567] | 74.995 |
| CN1CCC(OCCCn2ccnc2-c2nccn2C)CC1 [CBK307683] | 79.4561 |
| O=C(CCN1C(=O)/C(=C\C=C\c2ccccc2)SC1=S)Nc1cc(Cl)ccc1O [CBK264792] | 110.771 |
| COc1cc(CNc2nnn[nH]2)cc(Cl)c1OC [CBK288087] | 85.4485 |
| Cn1nnnc1SCC(=O)Nc1ccc(Cl)c(Cl)c1 [CBK058218] | 55.8959 |
| CCCCN1CCC(CNc2cc(C(F)(F)F)c3scc(C(=O)NC4CCC4)c3n2)CC1 [CBK034026C] | 45.7925 |
| C[C@@H](Cn1nc2c(cc1=O)CCCC2)NC(=O)c1cccc(F)c1 [CBK284561] | 124.254 |
| COc1cccc(CC(=O)Nc2ncccc2O)c1 [CBK305047] | 49.7549 |
| COc1ccc2[nH]cc(CCNC(=O)CC(C)O)c2c1 (stereo not drawn) [CBK116201] | 107.663 |
| CN1CC(=O)N2CCOC(C2)c2cccc(n2)NC(=O)C/C=C/CC2(CCN(Cc3ncc[nH]3)CC2)C1=O (stereo not drawn) [CBK292196] | 126.533 |
| COc1ccc(-c2cnc(N)c(N[C@H](C)c3ccccc3)n2)c(OC)c1OC [CBK063747] | 66.0198 |
| O=C(Nc1ccc2n(c1=O)C[C@H]1C[C@@H]2CN(C(=O)COc2ccccc2)C1)C1CCCCC1 [CBK289175] | 108.832 |
| CC(C)c1nn(C)c(N(C)C)c1CNCCc1cnn(C)c1 [CBK305135] | 53.8573 |
| O=C(NCc1cccs1)c1ccc(-c2ccc(OC(F)(F)F)cc2)nc1 [CBK156221] | 63.0311 |

| Compound | % of control remaining |
| --- | --- |
| CS(=O)(=O)N1CCN(C2CCN(Cc3ccccc3)CC2)CC1 [CBK263485] | 111.539 |
| Cc1cc(C(F)(F)F)nc(CCNC(=O)N(Cc2ccsc2)C2CC2)n1 [CBK307468] | 57.8787 |
| NC(=O)CN1CC2(CCN(C(=O)OCc3ccccc3)CC2)c2ccccc21 [CBK116309] | 69.7024 |
| COc1ccc(Oc2cncc(OC3CCN(CCc4ccc(F)cc4)C3)n2)cc1OC (stereo not drawn) [CBK084409] | 93.2981 |
| CCn1c(S)nnc1CNC(=O)c1ccc(Cl)cc1Cl [CBK267152] | 128.715 |
| Cc1ccnn1CCC(=O)N1CCCCC1c1nc2ccccc2[nH]1 (stereo not drawn) [CBK282374] | 97.1971 |
| Cc1noc(C)c1C(=O)N(C)Cc1cc(-c2ccncc2)no1 [CBK306677] | 79.3644 |
| Cc1cccc(Cn2nc(C)c(NC(=O)c3ccncc3)c2C)c1 [CBK270126] | 105.581 |
| Cc1nc(NC(=O)Cn2c3c(c4ccccc42)CCC3)nn1C [CBK281377] | 119.537 |
| O=C(O)CNS(=O)(=O)c1ccc(F)cc1 [CBK034464] | 96.9807 |
| Cc1nc(O)cc(C2CCN(C(=O)c3scc4c3CCCC4)CC2)n1 [CBK307452] | 88.2024 |
| CCc1cc2c(NCc3ccccc3)ncnc2s1 [CBK057944] | 83.8572 |
| COc1cccc(CN2CCN(S(=O)(=O)c3ccccc3[N+](=O)[O-])CC2)c1OC [CBK264162] | 127.466 |
| Cc1noc(C)c1NC(=O)c1cc2ccccc2[nH]1 [CBK200303] | 114.01 |
| COc1ccc2[nH]cc(CCNC(=O)c3cncnc3)c2c1 [CBK122720] | 107.348 |
| Cc1ccc(C(=O)O)cc1S(=O)(=O)N1CCC(C(=O)O)CC1 [CBK267327] | 121.697 |
| Cc1nc2sccn2c1CN(CCCN(C)C)Cc1ccco1 [CBK283199] | 49.1498 |
| COc1ccc(C(=O)[C@@H]2CCCN(C(=O)OC(C)(C)C)C2)cc1 [CBK284308] | 73.212 |
| O=C(CN1CC[C@H]2NC(=O)COc3ccccc3CCCC[C@@H]2C1)NCc1ccccn1 [CBK292046] | 122.268 |
| CCN1CC2(CCN(CC(N)=O)CC2)c2ccccc21 [CBK131485] | 108.316 |
| Cc1nn(CCC#N)c(C)c1CCC(=O)NCc1cn2ccccc2n1 [CBK304540] | 47.1387 |
| O=C(N[C@H]1CCN2C(=O)N(c3cccc4nsnc34)C(=O)[C@@H]2C1)c1cccs1 [CBK289543] | 103.953 |
| Cc1cccc2cc(CN(Cc3cccnc3)C(=O)Nc3ccccc3Cl)c(=O)[nH]c12 [CBK108869] | 80.9833 |
| Cc1ccc2c(c1)c(C(=O)N1CCn3nc(CO)cc3C1)nn2C [CBK307134] | 63.6752 |
| Cc1nccn1CC1(O)CCN(CC2=CCC3CC2C3(C)C)CC1 (stereo not drawn) [CBK284981] | 90.0457 |
